The whole screen tested about 360,000 compounds, of which about 7,500 (2.1%) were called active. Inconclusive results, whose numbers are uncertain, are shown with a selection of clear calls. The call rests on the fitted dose curve; in most records, active means well fitted cell-killing curve with a large enough effect; inconclusive means small, poorly fitted or top-dose-only effect, or effect the other way, or another doubt; inactive means no such curve, though single readings can be large or run the other way. Potencies of inconclusive entries are left out as doubtful fits.
Assay: qHTS for induction of synthetic lethality in tumor cells producing 2HG: qHTS for the HT-1080-IDH1KD cell line
Details: HT-1080 IDH1 knockdown viability, ATP luminescence, 48 h; series mostly up to 46.1 µM
Outline: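 HT-1080-IDH1KD cells (IDH1 knocked down), 750/well in RPMI with 5% FBS, treated with compound 48 h at 37 degrees C. Viability by CellTiter-Glo luminescence, normalised to DMSO and no-cell wells; concentration-response curves classed.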
Potency means the concentration at half of the fitted maximal effect; tags describe the fitted curve by direction and shape.

Structure (SMILES)	Potency
CC(C)(C)c1ccc(C(O)c2ncc(-c3cccc(F)c3)[nH]2)cc1 (configuration not stated)	inconclusive [cytotoxic, single point]
COC(=O)c1ccc(NCc2cc(O)ccc2O)cc1O	inconclusive [cytotoxic, single point]
O=C(Oc1ccccc1N1C(=O)C2CC=CCC2C1=O)c1ccc(Br)cc1 (configuration not stated)	inconclusive [cytotoxic, partial curve]
Cc1cccc(C)c1OCc1nnc(SCC(=O)NCc2ccccc2)o1	inconclusive [cytotoxic, single point]
COc1ccc(OCCCC(=O)Nc2nc(-c3ccccn3)cs2)cc1	inconclusive [cytotoxic, partial curve]
Cn1cc(CCNC(=O)CC2C(=O)NCCN2Cc2cccc(Oc3ccccc3)c2)cn1 (configuration not stated)	inconclusive [cytotoxic, single point]
O=C(O)C1CC=CCC1C(=O)Nc1ccc(S(=O)(=O)N2CCCc3ccccc32)cc1 (configuration not stated)	active: 5.62 µM
CCOC(=O)C1=C(N)Oc2ccc3ccccc3c2C1c1ccc(O)c(OC)c1 (configuration not stated)	inconclusive [cytotoxic, single point]
CCCNC(=O)CCn1cc(-c2ccc(OC)cc2)nc1-c1ccncc1	inactive
Cc1ccc(NC(=S)NCCN(C2CCCCC2)C2CCCC2)cc1C	inconclusive [cytotoxic, partial curve]
c1ccc(Cc2c(-c3ccco3)nc3c4ccccc4ccn23)cc1	inconclusive [cytotoxic, single point]
COC(=O)[C@@]12OC[C@]34[C@H]([C@@H](O)[C@@H]1O)[C@@]1(C)C(=O)C(O[C@@H]5OC(CO)[C@@H](O)[C@@H](O)[C@@H]5O)=C[C@@H](C)[C@@H]1C[C@H]3OC(=O)[C@H](OC(=O)/C=C(\C)C(C)(C)OC(C)=O)[C@@H]24 (some centres not stated)	inconclusive [cytotoxic, partial curve]
CN(C)Cc1ccccc1Sc1cccc2ccccc12	inactive
COc1ccc(-c2nc3c4ccccc4ccn3c2CC2CCCCC2)cc1OC	inconclusive [cytotoxic, single point]
CN(C)c1ccc(CNC(=O)c2cc(S(=O)(=O)N3CCOCC3)cn2C)cc1	inactive
CC(C)c1nnc(NC(=O)c2nc(S(=O)(=O)Cc3ccc(F)cc3)ncc2Cl)s1	active: 23.1 µM
CC1(C(=O)Nc2cccc3cccnc23)CCN1Cc1cccc2c1OCO2 (configuration not stated)	inconclusive [cytotoxic, partial curve]

From PubChem BioAssay AID686971 (National Center for Advancing Translational Sciences (NCATS), 2013)
